# Experimental data from the supplement of paper PMC8728848.
# The list shows a part of the results.
# B1: CVN-E41G (protein)
# chain: MHHHHHHENLYFQSGNFSQACYNSAIQGSVLTSTCIRTNGGYNTSSIDLNSVIGNVDGSLKWQGSNFIETCRNTQLAGSSELAAECKTRAQQFVSTKINLDDHIAAIDGTLKYE
# Columns and labels:
# Assay in all cases: glycan array binding signal (z-score within array); higher = stronger binding
# Details in all cases: glycan notation: IUPAC condensed, linker removed; mutation: E41G
# [1] = biological target: Gal6S(b1-4)Glc
# Outline: (§1)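 Columns mapping to the same glycan were averaged after glycan names were converted to IUPAC-condensed notation. The data come from 3228 arrays in the Consortium for Functional Glycomics database, limited to those with an available protein sequence. Binding is reported as a within-array Z-score averaged across arrays of one protein sequence and across linkers.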
# [2] = biological target: Gal6S(b1-4)Glc6S
# Outline: as §1
# [3] = biological target: Gal6S(b1-4)GlcNAc
# Outline: as §1
# [4] = biological target: Gal6S(b1-4)GlcNAc6S
# Outline: as §1
# [5] = biological target: GalNAc(a1-3)Gal
# Outline: as §1
# [6] = biological target: GalNAc(a1-3)GalNAc
# Outline: as §1
# [7] = biological target: GalNAc(a1-3)GalNAc(b1-3)Gal(a1-4)Gal(b1-4)Glc
# Outline: as §1
# [8] = biological target: GalNAc(a1-3)GalNAc(b1-3)Gal(a1-4)Gal(b1-4)GlcNAc
# Outline: as §1
# [9] = biological target: GalNAc(b1-3)Gal
# Outline: as §1
# [10] = biological target: GalNAc(b1-3)Gal(a1-4)Gal(b1-4)GlcNAc
# Outline: as §1
# [11] = biological target: GalNAc(b1-3)Gal(a1-4)Gal(b1-4)GlcNAc(b1-3)Gal(b1-4)Glc
# Outline: as §1
# [12] = biological target: GalNAc(b1-3)Gal(a1-6)Gal(b1-4)Glc
# Outline: as §1
# [13] = biological target: GalNAc(b1-3)GalNAc
# Outline: as §1
# [14] = biological target: GalNAc(b1-3)GlcNAc
# Outline: as §1
# [15] = biological target: GalNAc(b1-4)Gal(b1-4)Glc
# Outline: as §1
# [16] = biological target: GalNAc(b1-4)GlcNAc
# Outline: as §1
# [17] = biological target: GalNAc(b1-4)GlcNAc(b1-2)Man
# Outline: as §1
# [18] = biological target: GalNAc(b1-4)GlcNAc(b1-2)Man(a1-3)[GalNAc(b1-4)GlcNAc(b1-2)Man(a1-6)]Man(b1-4)GlcNAc(b1-4)GlcNAc
# Outline: as §1
# [19] = biological target: GalNAc(b1-4)GlcNAc(b1-3)GalNAc(b1-4)GlcNAc
# Outline: as §1
# [20] = biological target: GalNAc(b1-4)GlcNAc6S
# Outline: as §1
# [21] = biological target: GalNAc(b1-6)GalNAc
# Outline: as §1
# [22] = biological target: GalNAc3S(b1-4)GlcNAc
# Outline: as §1
# [23] = biological target: GalNAc3S(b1-4)GlcNAc3S
# Outline: as §1
# [24] = biological target: GalNAc3S(b1-4)[Fuc(a1-3)]GlcNAc
# Outline: as §1
# [25] = biological target: GalNAc4S6S(b1-4)GlcNAc
# Outline: as §1
# [26] = biological target: GalNAc6S(b1-4)GlcNAc
# Outline: as §1
# [27] = biological target: Glc(a1-4)Glc
# Outline: as §1
# [28] = biological target: Glc(a1-4)Glc(a1-4)Glc(a1-4)Glc
# Outline: as §1
# [29] = biological target: Glc(a1-6)Glc(a1-6)Glc
# Outline: as §1
# [30] = biological target: Glc(a1-6)Glc(a1-6)Glc(a1-6)Glc
# Outline: as §1
# [31] = biological target: Glc(b1-4)Glc
# Outline: as §1
# [32] = biological target: Glc(b1-6)Glc
# Outline: as §1
# [33] = biological target: GlcA(b1-3)Gal
# Outline: as §1
# [34] = biological target: GlcA(b1-3)GlcNAc
# Outline: as §1
# [35] = biological target: GlcA(b1-6)Gal
# Outline: as §1
# [36] = biological target: GlcA3S(b1-3)Gal(b1-4)GlcNAc(b1-2)Man
# Outline: as §1
# [37] = biological target: GlcA3S(b1-3)Gal(b1-4)GlcNAc(b1-3)Gal(b1-4)Glc
# Outline: as §1
# [38] = biological target: GlcNAc(a1-3)Gal(b1-4)GlcNAc
# Outline: as §1
# [39] = biological target: GlcNAc(a1-4)Gal(b1-3)GlcNAc
# Outline: as §1
# [40] = biological target: GlcNAc(a1-4)Gal(b1-4)GalNAc
# Outline: as §1
# [41] = biological target: GlcNAc(a1-4)Gal(b1-4)GlcNAc
# Outline: as §1
# [42] = biological target: GlcNAc(a1-4)Gal(b1-4)GlcNAc(b1-3)Gal(b1-4)Glc
# Outline: as §1
# [43] = biological target: GlcNAc(a1-4)Gal(b1-4)GlcNAc(b1-3)Gal(b1-4)GlcNAc
# Outline: as §1
# [44] = biological target: GlcNAc(a1-4)Gal(b1-4)GlcNAc(b1-3)Gal(b1-4)GlcNAc(b1-3)Gal(b1-4)GlcNAc
# Outline: as §1
# [45] = biological target: GlcNAc(a1-4)Gal(b1-4)GlcNAc(b1-3)Gal(b1-4)[Fuc(a1-3)]GlcNAc(b1-3)Gal(b1-4)[Fuc(a1-3)]GlcNAc
# Outline: as §1
binder,measurement,setting,value
B1,glycan array binding signal (z-score),[1],-0.138
same,glycan array binding signal (z-score),[2],-0.159
same,glycan array binding signal (z-score),[3],-0.174
same,glycan array binding signal (z-score),[4],-0.17
same,glycan array binding signal (z-score),[5],-0.175
same,glycan array binding signal (z-score),[6],-0.096
same,glycan array binding signal (z-score),[7],-0.179
same,glycan array binding signal (z-score),[8],-0.174
same,glycan array binding signal (z-score),[9],-0.133
same,glycan array binding signal (z-score),[10],-0.154
same,glycan array binding signal (z-score),[11],-0.163
same,glycan array binding signal (z-score),[12],-0.158
same,glycan array binding signal (z-score),[13],-0.176
same,glycan array binding signal (z-score),[14],-0.108
same,glycan array binding signal (z-score),[15],0.127
same,glycan array binding signal (z-score),[16],-0.135
same,glycan array binding signal (z-score),[17],-0.154
same,glycan array binding signal (z-score),[18],-0.056
same,glycan array binding signal (z-score),[19],-0.112
same,glycan array binding signal (z-score),[20],-0.143
same,glycan array binding signal (z-score),[21],-0.169
same,glycan array binding signal (z-score),[22],-0.172
same,glycan array binding signal (z-score),[23],-0.176
same,glycan array binding signal (z-score),[24],-0.15
same,glycan array binding signal (z-score),[25],-0.186
same,glycan array binding signal (z-score),[26],-0.186
same,glycan array binding signal (z-score),[27],-0.139
same,glycan array binding signal (z-score),[28],-0.138
same,glycan array binding signal (z-score),[29],-0.062
same,glycan array binding signal (z-score),[30],-0.029
same,glycan array binding signal (z-score),[31],-0.079
same,glycan array binding signal (z-score),[32],-0.107
same,glycan array binding signal (z-score),[33],-0.158
same,glycan array binding signal (z-score),[34],-0.162
same,glycan array binding signal (z-score),[35],-0.134
same,glycan array binding signal (z-score),[36],-0.137
same,glycan array binding signal (z-score),[37],-0.171
same,glycan array binding signal (z-score),[38],-0.155
same,glycan array binding signal (z-score),[39],-0.187
same,glycan array binding signal (z-score),[40],-0.158
same,glycan array binding signal (z-score),[41],-0.192
same,glycan array binding signal (z-score),[42],-0.169
same,glycan array binding signal (z-score),[43],-0.156
same,glycan array binding signal (z-score),[44],-0.178
same,glycan array binding signal (z-score),[45],-0.111
